Test results published in the supplement of paper PMC8728848.
Some of the results follow.

Tests used:
Test in all cases: glycan array binding signal (z-score within array); higher = stronger binding
Details in all cases: glycan notation: IUPAC condensed, linker removed
[1] = target: Neu5Ac(a2-3)Gal(b1-3)GlcNAc(b1-3)Gal(b1-3)GlcNAc
Method in brief: (§1)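 Glycan array binding is given as a within-array Z-score, which can be read as non-binding when negative. The arrays, 3228 of them, came from the Consortium for Functional Glycomics database and were retained only where the protein sequence was available. Z-scores were averaged across arrays of the same protein sequence at different concentrations or buffers and across linkers.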

[2] = target: Neu5Ac(a2-3)Gal(b1-3)GlcNAc(b1-3)Gal(b1-4)GlcNAc
Method in brief: as §1

[3] = target: Neu5Ac(a2-3)Gal(b1-3)GlcNAc(b1-3)GalNAc
Method in brief: as §1

[4] = target: Neu5Ac(a2-3)Gal(b1-3)GlcNAc6S
Method in brief: as §1

[5] = target: Neu5Ac(a2-3)Gal(b1-3)[Fuc(a1-4)]GlcNAc
Method in brief: as §1

[6] = target: Neu5Ac(a2-3)Gal(b1-3)[Fuc(a1-4)]GlcNAc(b1-3)Gal(b1-3)[Fuc(a1-4)]GlcNAc
Method in brief: as §1

[7] = target: Neu5Ac(a2-3)Gal(b1-3)[Fuc(a1-4)]GlcNAc(b1-3)Gal(b1-4)[Fuc(a1-3)]GlcNAc
Method in brief: as §1

[8] = target: Neu5Ac(a2-3)Gal(b1-3)[Neu5Ac(a2-3)Gal(b1-4)]GlcNAc
Method in brief: as §1

[9] = target: Neu5Ac(a2-3)Gal(b1-3)[Neu5Ac(a2-6)]GalNAc
Method in brief: as §1

Neu5Ac(a2-3)Gal(b1-4)Glc = target: Neu5Ac(a2-3)Gal(b1-4)Glc
Method in brief: as §1

[10] = target: Neu5Ac(a2-3)Gal(b1-4)GlcNAc
Method in brief: as §1

[11] = target: Neu5Ac(a2-3)Gal(b1-4)GlcNAc(b1-2)Man(a1-3)[GlcNAc(b1-2)Man(b1-4)GlcNAc(b1-2)Man(a1-6)]Man(b1-4)GlcNAc(b1-4)GlcNAc
Method in brief: as §1

[12] = target: Neu5Ac(a2-3)Gal(b1-4)GlcNAc(b1-2)Man(a1-3)[Neu5Ac(a2-6)Gal(b1-4)GlcNAc(b1-2)Man(a1-6)]Man(b1-4)GlcNAc(b1-4)GlcNAc
Method in brief: as §1

[13] = target: Neu5Ac(a2-3)Gal(b1-4)GlcNAc(b1-3)Gal(b1-3)GlcNAc
Method in brief: as §1

[14] = target: Neu5Ac(a2-3)Gal(b1-4)GlcNAc(b1-3)Gal(b1-4)GlcNAc
Method in brief: as §1

[15] = target: Neu5Ac(a2-3)Gal(b1-4)GlcNAc(b1-3)Gal(b1-4)GlcNAc(b1-3)Gal(b1-4)GlcNAc
Method in brief: as §1

[16] = target: Neu5Ac(a2-3)Gal(b1-4)GlcNAc(b1-3)Gal(b1-4)[Fuc(a1-3)]GlcNAc
Method in brief: as §1

[17] = target: Neu5Ac(a2-3)Gal(b1-4)GlcNAc(b1-3)GalNAc
Method in brief: as §1

[18] = target: Neu5Ac(a2-3)Gal(b1-4)GlcNAc(b1-6)[Gal(b1-3)]GalNAc
Method in brief: as §1

[19] = target: Neu5Ac(a2-3)Gal(b1-4)GlcNAc(b1-6)[Neu5Ac(a2-3)Gal(b1-3)]GalNAc
Method in brief: as §1

[20] = target: Neu5Ac(a2-3)Gal(b1-4)GlcNAc6S
Method in brief: as §1

[21] = target: Neu5Ac(a2-3)Gal(b1-4)[Fuc(a1-3)]GlcNAc
Method in brief: as §1

[22] = target: Neu5Ac(a2-3)Gal(b1-4)[Fuc(a1-3)]GlcNAc(b1-3)Gal
Method in brief: as §1

[23] = target: Neu5Ac(a2-3)Gal(b1-4)[Fuc(a1-3)]GlcNAc(b1-3)Gal(b1-4)GlcNAc
Method in brief: as §1

[24] = target: Neu5Ac(a2-3)Gal(b1-4)[Fuc(a1-3)]GlcNAc(b1-3)Gal(b1-4)[Fuc(a1-3)]GlcNAc(b1-3)Gal(b1-4)[Fuc(a1-3)]GlcNAc
Method in brief: as §1

[25] = target: Neu5Ac(a2-3)Gal(b1-4)[Fuc(a1-3)]GlcNAc(b1-3)GalNAc
Method in brief: as §1

[26] = target: Neu5Ac(a2-3)Gal(b1-4)[Fuc(a1-3)]GlcNAc(b1-6)[Gal(b1-3)]GalNAc
Method in brief: as §1

[27] = target: Neu5Ac(a2-3)Gal(b1-4)[Fuc(a1-3)]GlcNAc(b1-6)[Neu5Ac(a2-3)Gal(b1-3)]GalNAc
Method in brief: as §1

[28] = target: Neu5Ac(a2-3)Gal(b1-4)[Fuc(a1-3)]GlcNAc6S
Method in brief: as §1

[29] = target: Neu5Ac(a2-3)Gal6S(b1-4)GlcNAc
Method in brief: as §1

[30] = target: Neu5Ac(a2-3)Gal6S(b1-4)[Fuc(a1-3)]GlcNAc
Method in brief: as §1

Neu5Ac(a2-3)GalNAc = target: Neu5Ac(a2-3)GalNAc
Method in brief: as §1

[31] = target: Neu5Ac(a2-3)GalNAc(b1-4)GlcNAc
Method in brief: as §1

[32] = target: Neu5Ac(a2-3)[GalNAc(b1-4)]Gal(b1-4)Glc
Method in brief: as §1

[33] = target: Neu5Ac(a2-3)[GalNAc(b1-4)]Gal(b1-4)GlcNAc
Method in brief: as §1

[34] = target: Neu5Ac(a2-3)[GalNAc(b1-4)]Gal(b1-4)GlcNAc(b1-3)GalNAc
Method in brief: as §1

[35] = target: Neu5Ac(a2-3)[Neu5Ac(a2-6)]GalNAc
Method in brief: as §1

Neu5Ac(a2-6)Gal = target: Neu5Ac(a2-6)Gal
Method in brief: as §1

Neu5Ac(a2-6)Gal(b1-4)Glc = target: Neu5Ac(a2-6)Gal(b1-4)Glc
Method in brief: as §1

[36] = target: Neu5Ac(a2-6)Gal(b1-4)GlcNAc
Method in brief: as §1

B1: Galatrox (Botrops atrox), P0DM53 (protein)
chain: NNCPQDWLPMNGLCYKIFDELKAWKDAEMFCRKYKPGCHLASIILYGESPEWAEGHSEVWLGLWDKKKDFSWEWTDR
glycan array binding signal (z-score) [1]: -0.367 | glycan array binding signal (z-score) [2]: -0.354 | glycan array binding signal (z-score) [3]: -0.366 | glycan array binding signal (z-score) [4]: -0.36 | glycan array binding signal (z-score) [5]: -0.374 | glycan array binding signal (z-score) [6]: -0.357 | glycan array binding signal (z-score) [7]: -0.332 | glycan array binding signal (z-score) [8]: -0.37 | glycan array binding signal (z-score) [9]: -0.264 | glycan array binding signal (z-score) (Neu5Ac(a2-3)Gal(b1-4)Glc): -0.371 | glycan array binding signal (z-score) [10]: -0.362 | glycan array binding signal (z-score) [11]: -0.353 | glycan array binding signal (z-score) [12]: -0.149 | glycan array binding signal (z-score) [13]: -0.366 | glycan array binding signal (z-score) [14]: -0.372 | glycan array binding signal (z-score) [15]: -0.366 | glycan array binding signal (z-score) [16]: -0.348 | glycan array binding signal (z-score) [17]: -0.37 | glycan array binding signal (z-score) [18]: -0.351 | glycan array binding signal (z-score) [19]: -0.37 | glycan array binding signal (z-score) [20]: -0.369 | glycan array binding signal (z-score) [21]: -0.375 | glycan array binding signal (z-score) [22]: -0.366 | glycan array binding signal (z-score) [23]: 2.3 | glycan array binding signal (z-score) [24]: -0.361 | glycan array binding signal (z-score) [25]: -0.309 | glycan array binding signal (z-score) [26]: 0.037 | glycan array binding signal (z-score) [27]: -0.332 | glycan array binding signal (z-score) [28]: -0.373 | glycan array binding signal (z-score) [29]: -0.366 | glycan array binding signal (z-score) [30]: -0.367 | glycan array binding signal (z-score) (Neu5Ac(a2-3)GalNAc): -0.364 | glycan array binding signal (z-score) [31]: -0.362 | glycan array binding signal (z-score) [32]: -0.364 | glycan array binding signal (z-score) [33]: -0.144 | glycan array binding signal (z-score) [34]: -0.358 | glycan array binding signal (z-score) [35]: -0.374 | glycan array binding signal (z-score) (Neu5Ac(a2-6)Gal): -0.359 | glycan array binding signal (z-score) (Neu5Ac(a2-6)Gal(b1-4)Glc): -0.362 | glycan array binding signal (z-score) [36]: -0.353
